Data as given in patent publication US20120004205A1, “IL-13 INDUCED GENE SIGNATURE FOR EOSINOPHILIC ESOPHAGITIS” (Cincinnati Children's Hospital Medical Center, priority 2008, published 2012).

Test system: human esophageal epithelial cell lines (TE-1, TE-6, TE-7, and TE-13)
Assay: Eotaxin-1 and eotaxin-2 expression after IL-13 stimulation, real-time PCR
Type: cell-based

## IL-13: cytokine Interleukin 13 (Preprotech) added to culture media to stimulate esophageal cells
  eotaxin-1 and eotaxin-2 expression after IL-13 stimulation: not overexpressed
